# Measured values: the supplement of paper PMC8728848
# The other results are listed elsewhere or left out.
# B1: Gal 2 (Canis lupus) (protein)
# chain: MSGKFEVMNMDMKLGGTLKIKGKIAGDADGFVINLGQGSDKLNLHFNPRFHESVIVCNSRNWGQEQRDKHMCFSPGSEVKFTVTFENDGFKVKLPDGHQLTFPNRLGHSHLSYLGVQGGLKVSSFKIE
# Columns and labels:
# Assay in all cases: glycan array binding signal (z-score within array); higher = stronger binding
# Conditions in all cases: glycan notation: IUPAC condensed, linker removed
# [1] = target: Fuc(a1-2)Gal
# Method in brief: (§1)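 The binding signal is a Z-score computed within each array and averaged over linkers. Arrays of the same protein sequence at different concentrations or buffers were also averaged together. Data originate from 3228 arrays in the Consortium for Functional Glycomics database, kept only where the protein sequence was available.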
# [2] = target: Fuc(a1-2)Gal(b1-3)GalNAc
# Method in brief: as §1
# [3] = target: Fuc(a1-2)Gal(b1-3)GalNAc(a1-3)[Fuc(a1-2)]Gal(b1-4)Glc
# Method in brief: as §1
# [4] = target: Fuc(a1-2)Gal(b1-3)GalNAc(a1-3)[Fuc(a1-2)]Gal(b1-4)GlcNAc
# Method in brief: as §1
# [5] = target: Fuc(a1-2)Gal(b1-3)GalNAc(b1-3)Gal
# Method in brief: as §1
# [6] = target: Fuc(a1-2)Gal(b1-3)GalNAc(b1-3)Gal(a1-4)Gal(b1-4)Glc
# Method in brief: as §1
# [7] = target: Fuc(a1-2)Gal(b1-3)GalNAc(b1-4)[Neu5Ac(a2-3)]Gal(b1-4)Glc
# Method in brief: as §1
# [8] = target: Fuc(a1-2)Gal(b1-3)GlcNAc
# Method in brief: as §1
# [9] = target: Fuc(a1-2)Gal(b1-3)GlcNAc(b1-2)Man(a1-3)[Fuc(a1-2)Gal(b1-3)GlcNAc(b1-2)Man(a1-6)]Man(b1-4)GlcNAc(b1-4)GlcNAc
# Method in brief: as §1
# [10] = target: Fuc(a1-2)Gal(b1-3)GlcNAc(b1-2)Man(a1-3)[Fuc(a1-2)Gal(b1-3)GlcNAc(b1-2)Man(a1-6)]Man(b1-4)GlcNAc(b1-4)[Fuc(a1-6)]GlcNAc
# Method in brief: as §1
# [11] = target: Fuc(a1-2)Gal(b1-3)GlcNAc(b1-3)Gal(b1-4)Glc
# Method in brief: as §1
# [12] = target: Fuc(a1-2)Gal(b1-3)GlcNAc(b1-3)GalNAc
# Method in brief: as §1
# [13] = target: Fuc(a1-2)Gal(b1-3)GlcNAc(b1-3)[Fuc(a1-3)[Gal(b1-4)]GlcNAc(b1-6)]Gal(b1-4)Glc
# Method in brief: as §1
# [14] = target: Fuc(a1-2)Gal(b1-3)GlcNAc(b1-3)[Gal(b1-4)GlcNAc(b1-6)]Gal(b1-4)Glc
# Method in brief: as §1
# [15] = target: Fuc(a1-2)Gal(b1-3)[Fuc(a1-4)]GlcNAc
# Method in brief: as §1
# [16] = target: Fuc(a1-2)Gal(b1-3)[Fuc(a1-4)]GlcNAc(b1-2)Man(a1-3)[Fuc(a1-2)Gal(b1-3)[Fuc(a1-4)]GlcNAc(b1-2)Man(a1-6)]Man(b1-4)GlcNAc(b1-4)GlcNAc
# Method in brief: as §1
# [17] = target: Fuc(a1-2)Gal(b1-3)[Fuc(a1-4)]GlcNAc(b1-3)[Fuc(a1-3)[Gal(b1-4)]GlcNAc(b1-6)]Gal(b1-4)Glc
# Method in brief: as §1
# [18] = target: Fuc(a1-2)Gal(b1-3)[Fuc(a1-4)]GlcNAc(b1-3)[Gal(b1-4)GlcNAc(b1-6)]Gal(b1-4)Glc
# Method in brief: as §1
# [19] = target: Fuc(a1-2)Gal(b1-4)Glc
# Method in brief: as §1
# [20] = target: Fuc(a1-2)Gal(b1-4)Glc6S
# Method in brief: as §1
# [21] = target: Fuc(a1-2)Gal(b1-4)GlcNAc
# Method in brief: as §1
# [22] = target: Fuc(a1-2)Gal(b1-4)GlcNAc(b1-2)Man(a1-3)[Fuc(a1-2)Gal(b1-4)GlcNAc(b1-2)Man(a1-6)]Man(b1-4)GlcNAc(b1-4)GlcNAc
# Method in brief: as §1
# [23] = target: Fuc(a1-2)Gal(b1-4)GlcNAc(b1-2)Man(a1-3)[Fuc(a1-2)Gal(b1-4)GlcNAc(b1-2)Man(a1-6)]Man(b1-4)GlcNAc(b1-4)[Fuc(a1-6)]GlcNAc
# Method in brief: as §1
# [24] = target: Fuc(a1-2)Gal(b1-4)GlcNAc(b1-2)[Fuc(a1-2)Gal(b1-4)GlcNAc(b1-4)]Man(a1-3)[Fuc(a1-2)Gal(b1-4)GlcNAc(b1-2)Man(a1-6)]Man(b1-4)GlcNAc(b1-4)GlcNAc
# Method in brief: as §1
# [25] = target: Fuc(a1-2)Gal(b1-4)GlcNAc(b1-3)Gal(b1-4)GlcNAc
# Method in brief: as §1
# [26] = target: Fuc(a1-2)Gal(b1-4)GlcNAc(b1-3)Gal(b1-4)GlcNAc(b1-3)Gal(b1-4)GlcNAc
# Method in brief: as §1
# [27] = target: Fuc(a1-2)Gal(b1-4)GlcNAc(b1-3)GalNAc
# Method in brief: as §1
# [28] = target: Fuc(a1-2)Gal(b1-4)GlcNAc6S
# Method in brief: as §1
# [29] = target: Fuc(a1-2)Gal(b1-4)[Fuc(a1-3)]GlcNAc
# Method in brief: as §1
# [30] = target: Fuc(a1-2)Gal(b1-4)[Fuc(a1-3)]GlcNAc(b1-2)Man(a1-3)[Fuc(a1-2)Gal(b1-4)[Fuc(a1-3)]GlcNAc(b1-2)Man(a1-6)]Man(b1-4)GlcNAc(b1-4)GlcNAc
# Method in brief: as §1
binder,measurement,setting,value
B1,glycan array binding signal (z-score),[1],0.08
same,glycan array binding signal (z-score),[2],-0.366
same,glycan array binding signal (z-score),[3],0.099
same,glycan array binding signal (z-score),[4],-0.197
same,glycan array binding signal (z-score),[5],-0.045
same,glycan array binding signal (z-score),[6],0.103
same,glycan array binding signal (z-score),[7],-0.028
same,glycan array binding signal (z-score),[8],-0.181
same,glycan array binding signal (z-score),[9],0.59
same,glycan array binding signal (z-score),[10],-0.223
same,glycan array binding signal (z-score),[11],0.017
same,glycan array binding signal (z-score),[12],-0.114
same,glycan array binding signal (z-score),[13],-0.115
same,glycan array binding signal (z-score),[14],-0.21
same,glycan array binding signal (z-score),[15],-0.074
same,glycan array binding signal (z-score),[16],-0.307
same,glycan array binding signal (z-score),[17],0.019
same,glycan array binding signal (z-score),[18],-0.12
same,glycan array binding signal (z-score),[19],-0.11
same,glycan array binding signal (z-score),[20],-0.159
same,glycan array binding signal (z-score),[21],0.225
same,glycan array binding signal (z-score),[22],1.43
same,glycan array binding signal (z-score),[23],0.046
same,glycan array binding signal (z-score),[24],0.211
same,glycan array binding signal (z-score),[25],-0.231
same,glycan array binding signal (z-score),[26],-0.156
same,glycan array binding signal (z-score),[27],-0.289
same,glycan array binding signal (z-score),[28],-0.218
same,glycan array binding signal (z-score),[29],-0.245
same,glycan array binding signal (z-score),[30],0.795
